Among all 1,100 compounds or so, about 70 (6%) were called active. About 22% were inconclusive and are not listed. Calls follow the shape of the dose curve; as a rule, active = well fitted curve in the direction sought with a large enough effect; inconclusive = small, poorly fitted or top-dose-only effect, or another doubt; inactive = no such curve, though single readings can be large or run the other way. The list shows a part of the results.
target: Polyunsaturated fatty acid lipoxygenase ALOX12 (Homo sapiens) (UniProt P18054); assay: Confirmatory qHTS assay for inhibitors of human arachidonate 12S-lipoxygenase (ALOX12): Round 2; settings: purified human 12-LOX, xylenol orange absorbance; series mostly up to 125 µM; activity change, negative = inhibition: at the top concentration
Procedure, shortened: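 Purified human enzyme (150 nM) in 25 mM Hepes, 0.01% Triton X-100, pH 7.0, preincubated 15 min with compound, then 40 uM arachidonic acid for 30 min at room temperature. Hydroperoxide detected by Fe-XO, read as 573/405 nm absorbance ratio.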
% is scaled to controls: 0 for no effect and ±100 for the full control effect.

Chain of UniProt P18054 (P18054 whole entry, looked up): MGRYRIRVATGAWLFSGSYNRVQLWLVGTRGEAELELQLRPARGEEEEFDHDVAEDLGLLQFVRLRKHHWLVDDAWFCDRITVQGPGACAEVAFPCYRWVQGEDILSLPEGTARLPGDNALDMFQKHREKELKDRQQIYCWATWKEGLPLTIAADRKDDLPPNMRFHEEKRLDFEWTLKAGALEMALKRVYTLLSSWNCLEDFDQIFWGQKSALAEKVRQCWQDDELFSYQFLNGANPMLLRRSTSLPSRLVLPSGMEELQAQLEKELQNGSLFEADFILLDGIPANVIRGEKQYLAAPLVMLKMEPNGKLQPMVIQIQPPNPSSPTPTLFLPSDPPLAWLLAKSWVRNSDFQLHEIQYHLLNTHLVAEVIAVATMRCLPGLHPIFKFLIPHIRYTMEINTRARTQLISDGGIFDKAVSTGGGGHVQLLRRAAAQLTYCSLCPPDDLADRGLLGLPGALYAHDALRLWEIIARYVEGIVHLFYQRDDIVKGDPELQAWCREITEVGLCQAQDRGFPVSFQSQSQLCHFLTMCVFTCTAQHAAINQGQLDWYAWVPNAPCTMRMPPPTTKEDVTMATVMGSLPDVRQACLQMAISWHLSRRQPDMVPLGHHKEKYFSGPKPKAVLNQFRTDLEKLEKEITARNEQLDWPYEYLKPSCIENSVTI

Activity change, negative = inhibition, inactive:
O=C(NCc1ccc(Cl)nc1)c1cnn2c1CN(C(=O)c1ccccc1)CC2 -7.59%, O=C(O)CCCC(=O)N1Cc2ccccc2CC2(CCCCN2CCc2ccccc2)C1 (centres undefined) -6.66%, C[S+](=O)([O-])NC1CC2(CCN(C(=O)CCCN)CC2)c2ccccc21 (centres undefined) -19.1%, CC(=O)NC1CC2(CCN(C(=O)CCCNC(=O)OC(C)(C)C)CC2)Oc2ccccc21 (centres undefined) -9.05%, CN1CCC(C(=O)N2Cc3ccccc3CC3(CCCCN3CC3CCNCC3)C2)CC1 (centres undefined) -24.4%, CC(C)CNC(=O)c1cc(C2CC2)nc2onc(C3CCCNC3)c12 (centres undefined) -8.92%, O=C(c1ccc(C(F)(F)F)cc1)N1CCn2c(nnc2C2CCCNC2)C1 (centres undefined) -18.7%, Cc1noc(C)c1S(=O)(=O)N1CCC(N2CCOC2=O)CC1 -9.89%, CN(c1ccc(Cl)c(Cl)c1)C1CNC1 -9.16%, Cc1ccc(CN2CC3ON=C(C(=O)O)C3C2)cc1 (centres undefined) -27.1%, FC(F)(F)c1ccc(N2C3CCC2CN(Cc2cccc(-c4cccs4)c2)C3)cc1 -3.77%, CC/C(=C(\c1ccccc1)c1ccc(OCCN(C)C)cc1)c1ccccc1 -27.6%, O=C(NC1CCNCC1)c1cc(C2CC2)nc2onc(C3CCCN3)c12 (centres undefined) -4.15%, O=C(O)c1cccc(-c2cncc(C(=O)O)c2)c1 -11.8%, CC(=O)N1CC2(CCCN(CC3CCCCC3)C2)Cc2ccccc21 (centres undefined) -4.35%, O=C1NC(=NC2CCCC2)C2(CCCN(Cc3ccsc3)C2)N1c1cc(F)cc(F)c1 (centres undefined) -8.77%, CN1CC(=O)N(C2CCCNC2)Cc2c(NC3CCCCCC3)ncnc21 (centres undefined) -16.7%, CNC(=O)c1cn2c(n1)CN([S+](C)(=O)[O-])CC2 -21.3%, CC(=O)NC1CC2(CCN(C(=O)Cc3cnc[nH]3)CC2)c2ccccc21 (centres undefined) -3.09%, CN1CCN(CC2(N)CCCCC2)CC1 -1.35% [at 233 µM], CN1CC(=O)N(C2CCCNCC2)Cc2c1ncnc2N1CCN(c2ccccn2)CC1 (centres undefined) -3.05%, c1ccc(COCCCc2cnc[nH]2)cc1 -4.41%, CN1CC(=O)N(c2ccc(Cl)cc2)Cc2c(NCC3CC3)ncnc21 -20.9%, COCc1nc(C2CC(N)C2)cc(N(C)CCN2CCCCC2=O)n1 (centres undefined) -20% [at 64.5 µM], CC(C)[S+](=O)([O-])N1CCN(c2ccc(C=O)cc2)C(=O)C1 -1.24%, O=C1CCCN1CCCN1C(=O)[C@@H]2C[C@@H](O)CN2C2(CN(Cc3cccc(OC(F)(F)F)c3)C2)C1=O -0.894% [at 64.5 µM], CN1CC(=O)N(C2CCCNCC2)Cc2c(NCc3ccc4c(c3)OCO4)ncnc21 (centres undefined) -21.5%, O=Cc1ccc(-c2cncc(C(=O)O)c2)cc1 -13.9% [at 233 µM], c1ccc(C2(c3ccccc3)CCCN(Cc3cscn3)C2)cc1 -5.78% [at 64.5 µM], CC(=O)NCCC(=O)N1Cc2ccccc2CC2(CCCN(CC3CCNC3)C2)C1 (centres undefined) -2.11%, O=C(c1ccccc1F)N1CCC2(C1)C(=O)N(c1ccccc1)c1ccccc12 (centres undefined) -12.9%, CNc1oc(-c2cccc(Cl)c2)nc1C#N -2.27% [at 64.5 µM], OCC1CN(Cc2ccc(Cl)cc2)CC12CCNCC2 (centres undefined) -4.83% [at 64.5 µM], O=C(OCC#CCSc1nnc(-c2cccc3ccccc23)o1)c1ccccc1F -14.4% [at 64.5 µM], Cc1cccc(CN2CCCC23Cc2ccccc2CNC3=O)c1 (centres undefined) -20.7%, Cc1ccc(C(=O)N2CCC3(CC(C(C)C)=NO3)C2)cc1 (centres undefined) -5%, CCCNC(=O)N1CC[C@@H]2[C@H]1C(=O)N(c1cccc(F)c1)C(=O)N2Cc1cccs1 17.7% [at 64.5 µM], COc1ccc(CN2C[C@H](O)C[C@H]2c2nc(-c3ccc(OC)cc3)no2)cc1 -19.6% [at 64.5 µM], CC(C)NC(=O)NC1CC2(CCN(C(=O)Cc3ccc(O)cc3)CC2)c2ccccc21 (centres undefined) -17.5%, Cc1cccn2c(CNC3CCC4(CCNCC4)CC3)cnc12 0.399% [at 64.5 µM], Cc1cc(C(=O)NCc2ccc(F)cc2)c2c(C3CCCNC3)noc2n1 (centres undefined) -10%, CC(C)Nc1ncnc2c1CN(C1CCCNC1)C(=O)CN2C (centres undefined) -17.1%, CC(C)c1nc2c(c(-c3ccc(Cl)cc3)n1)CCN(Cc1cccc3ccccc13)CC2 -18.3%, O=C1NCCCCCCN[C@H]2C[C@H](c3nc(-c4cccnc4)no3)C[C@@H]12 -9.6% [at 64.5 µM], O=C(OCC#CCSc1nnc(-c2cccc3ccccc23)o1)c1ccsc1 -10.6% [at 64.5 µM], Cc1noc(C)c1-c1cc2cc(C(C)C)oc2c(-c2cccc(CO)c2)n1 -6.07% [at 64.5 µM], COCCNc1ncnc2c1CN(C1CCCNCC1)C(=O)CN2C (centres undefined) -5.38%, CCc1nc2c(c(-c3ccc(OC)cc3)n1)CCN(Cc1cccc3ccccc13)CC2 -29.4%, Cn1ccnc1CNc1nccc(-c2cnn(-c3ccccc3F)c2)n1 12.3% [at 64.5 µM], CCC(=O)N1Cc2ccccc2CC2(CCN(CC3CCNC3)C2)C1 (centres undefined) -20.6%, Cc1ccc(-c2ccccc2CN)cc1Cl -19.5%, CC1=C[C@@H](CNCc2ccncc2)[C@H](C(C)C)C[C@H]1Cc1nnc(-c2ccc([N+](=O)[O-])cc2)o1 32.6% [at 64.5 µM], O=C(NCc1ccc(-c2cnc3c(Oc4ccccc4)nccn23)cc1)c1ccn[nH]1 -6.61% [at 64.5 µM], CCNc1ncnc2c1CN(C1CCCNC1)C(=O)CN2C (centres undefined) -11.7%

Reference: PubChem BioAssay AID1671189 (National Center for Advancing Translational Sciences (NCATS), 2021)
